Test: PK study in females with BMI <25 and BMI >25 kg/m^2
Type: in vivo, human
Settings: 18 females BMI <25 vs 21 females BMI >25 kg/m^2; vaginal system

SMILES | decrease in the systemic exposure (AUC6-21day) between the two BMI groups
C#C[C@]1(O)CC[C@H]2[C@@H]3CCc4cc(O)ccc4[C@H]3CC[C@@]21C [EE, 19-nor-17α-pregna-1,3,5(10)-trien-20-yne-3,17-diol] | ≤ 33%
C=C1C[C@H]2[C@@H]3CCC4=CC(=O)CC[C@@H]4[C@H]3CC[C@]2(C)[C@@]1(OC(C)=O)C(C)=O [SA, 16-methylene-17α-acetoxy-19-nor-pregn-4-ene-3,20-dione] | up to 16%
